# Positions count from the first letter of the chain named. The list shows a part of the results.
# T1: RBFOX1 RRM RbFoxmut (Fox-RRM*) (Homo sapiens, UniProt Q9NWB1 109-208, R118D;E147R;N151S;E152T)
# T1 sequence: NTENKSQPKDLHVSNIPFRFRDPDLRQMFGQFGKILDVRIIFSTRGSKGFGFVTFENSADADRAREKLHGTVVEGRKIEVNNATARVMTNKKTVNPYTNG
# B1: CCAAACC (DNA:RNA)
# RNA: GGGAGACCGGAAUUCAGAUUGUCCCCAAACCUUAAAUCCCGUCGUAGCCACCA
# DNA 1: CAATCTGAATTCCGGTCTCCC
# DNA 2: TGGTGGCTACGACGGGATT
# B2: CCUGUGA (DNA:RNA)
# RNA: B1 RNA with A27U, A28G, A29U, C30G, C31A
# DNA 1: CAATCTGAATTCCGGTCTCCC
# DNA 2: TGGTGGCTACGACGGGATT
# B3: GAGGCUG (DNA:RNA)
# RNA: GGGAGACCGGAAUUCAGAUUGUCCGAGGCUGUUAAAUCCCGUCGUAGCCACCA
# DNA 1: CAATCTGAATTCCGGTCTCCC
# DNA 2: TGGTGGCTACGACGGGATT
# B4: CUAUUUG (DNA:RNA)
# RNA: B1 RNA with C26U, A28U, A29U, C30U, C31G
# DNA 1: CAATCTGAATTCCGGTCTCCC
# DNA 2: TGGTGGCTACGACGGGATT
# B5: UCGGGCU (DNA:RNA)
# RNA: B1 RNA with C25U, A27G, A28G, A29G, C31U
# DNA 1: CAATCTGAATTCCGGTCTCCC
# DNA 2: TGGTGGCTACGACGGGATT
# B6: AAUCCAC (DNA:RNA)
# RNA: B3 RNA with G25A, G27U, G28C, U30A, G31C
# DNA 1: CAATCTGAATTCCGGTCTCCC
# DNA 2: TGGTGGCTACGACGGGATT
# B7: UUAAGGA (DNA:RNA)
# RNA: B1 RNA with C25U, C26U, A29G, C30G, C31A
# DNA 1: CAATCTGAATTCCGGTCTCCC
# DNA 2: TGGTGGCTACGACGGGATT
# B8: ACCUUUG (DNA:RNA)
# RNA: B3 RNA with G25A, A26C, G27C, G28U, C29U
# DNA 1: CAATCTGAATTCCGGTCTCCC
# DNA 2: TGGTGGCTACGACGGGATT
# B9: GUGGCCU (DNA:RNA)
# RNA: B3 RNA with A26U, U30C, G31U
# DNA 1: CAATCTGAATTCCGGTCTCCC
# DNA 2: TGGTGGCTACGACGGGATT
# B10: CGGAACC (DNA:RNA)
# RNA: B1 RNA with C26G, A27G
# DNA 1: CAATCTGAATTCCGGTCTCCC
# DNA 2: TGGTGGCTACGACGGGATT
# B11: GGUCUUU (DNA:RNA)
# RNA: B3 RNA with A26G, G27U, G28C, C29U, G31U
# DNA 1: CAATCTGAATTCCGGTCTCCC
# DNA 2: TGGTGGCTACGACGGGATT
# B12: GAUGCAA (DNA:RNA)
# RNA: B3 RNA with G27U, U30A, G31A
# DNA 1: CAATCTGAATTCCGGTCTCCC
# DNA 2: TGGTGGCTACGACGGGATT
# B13: UCGCAGA (DNA:RNA)
# RNA: B1 RNA with C25U, A27G, A28C, C30G, C31A
# DNA 1: CAATCTGAATTCCGGTCTCCC
# DNA 2: TGGTGGCTACGACGGGATT
# B14: GGUCUUA (DNA:RNA)
# RNA: B3 RNA with A26G, G27U, G28C, C29U, G31A
# DNA 1: CAATCTGAATTCCGGTCTCCC
# DNA 2: TGGTGGCTACGACGGGATT
# B15: AAGUACU (DNA:RNA)
# RNA: B1 RNA with C25A, C26A, A27G, A28U, C31U
# DNA 1: CAATCTGAATTCCGGTCTCCC
# DNA 2: TGGTGGCTACGACGGGATT
# B16: UUUACGC (DNA:RNA)
# RNA: B1 RNA with C25U, C26U, A27U, A29C, C30G
# DNA 1: CAATCTGAATTCCGGTCTCCC
# DNA 2: TGGTGGCTACGACGGGATT
# B17: CCACCUG (DNA:RNA)
# RNA: B1 RNA with A28C, A29C, C30U, C31G
# DNA 1: CAATCTGAATTCCGGTCTCCC
# DNA 2: TGGTGGCTACGACGGGATT
# B18: GAGAAGA (DNA:RNA)
# RNA: B3 RNA with G28A, C29A, U30G, G31A
# DNA 1: CAATCTGAATTCCGGTCTCCC
# DNA 2: TGGTGGCTACGACGGGATT
# B19: GUGCCAA (DNA:RNA)
# RNA: B3 RNA with A26U, G28C, U30A, G31A
# DNA 1: CAATCTGAATTCCGGTCTCCC
# DNA 2: TGGTGGCTACGACGGGATT
# B20: ACGAGGC (DNA:RNA)
# RNA: B1 RNA with C25A, A27G, A29G, C30G
# DNA 1: CAATCTGAATTCCGGTCTCCC
# DNA 2: TGGTGGCTACGACGGGATT
# B21: UACCGUC (DNA:RNA)
# RNA: B3 RNA with G25U, G27C, G28C, C29G, G31C
# DNA 1: CAATCTGAATTCCGGTCTCCC
# DNA 2: TGGTGGCTACGACGGGATT
# B22: AAUUCUG (DNA:RNA)
# RNA: B3 RNA with G25A, G27U, G28U
# DNA 1: CAATCTGAATTCCGGTCTCCC
# DNA 2: TGGTGGCTACGACGGGATT
# B23: ACGUACA (DNA:RNA)
# RNA: B1 RNA with C25A, A27G, A28U, C31A
# DNA 1: CAATCTGAATTCCGGTCTCCC
# DNA 2: TGGTGGCTACGACGGGATT
# B24: GAAGUCU (DNA:RNA)
# RNA: B3 RNA with G27A, C29U, U30C, G31U
# DNA 1: CAATCTGAATTCCGGTCTCCC
# DNA 2: TGGTGGCTACGACGGGATT
# B25: AAGGUUA (DNA:RNA)
# RNA: B3 RNA with G25A, C29U, G31A
# DNA 1: CAATCTGAATTCCGGTCTCCC
# DNA 2: TGGTGGCTACGACGGGATT
# B26: CCUAUCU (DNA:RNA)
# RNA: B1 RNA with A27U, A29U, C31U
# DNA 1: CAATCTGAATTCCGGTCTCCC
# DNA 2: TGGTGGCTACGACGGGATT
# B27: AGUGCCC (DNA:RNA)
# RNA: B1 RNA with C25A, C26G, A27U, A28G, A29C
# DNA 1: CAATCTGAATTCCGGTCTCCC
# DNA 2: TGGTGGCTACGACGGGATT
# B28: AGCCAUU (DNA:RNA)
# RNA: B1 RNA with C25A, C26G, A27C, A28C, C30U, C31U
# DNA 1: CAATCTGAATTCCGGTCTCCC
# DNA 2: TGGTGGCTACGACGGGATT
# B29: UUGGGCU (DNA:RNA)
# RNA: B3 RNA with G25U, A26U, C29G, U30C, G31U
# DNA 1: CAATCTGAATTCCGGTCTCCC
# DNA 2: TGGTGGCTACGACGGGATT
# B30: ACGCUGU (DNA:RNA)
# RNA: B1 RNA with C25A, A27G, A28C, A29U, C30G, C31U
# DNA 1: CAATCTGAATTCCGGTCTCCC
# DNA 2: TGGTGGCTACGACGGGATT
# B31: UCUCCUC (DNA:RNA)
# RNA: B1 RNA with C25U, A27U, A28C, A29C, C30U
# DNA 1: CAATCTGAATTCCGGTCTCCC
# DNA 2: TGGTGGCTACGACGGGATT
# Biological target: T1, RBFOX1 RRM RbFoxmut (Fox-RRM*)
# Assay: EMSA; HiTS-Eq, 1 nM pool, 10 min; buffer printed only for the single-RNA assays: 10 mM Tris pH 7.5, 150 mM NaCl, 3.4 mM EDTA, 0.001% NP-40, 30 C
# Conditions: tags: His6 N-terminal (pET28a); label: 5' 32P
# Summary of the method: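 Purified RbFox RRM, wild type or mutant, was incubated for 10 min in 50 µL with 1 nM of a 5′-radiolabelled RNA pool carrying 7 randomized nucleotides, whose flanks were annealed to DNA oligonucleotides, over a series of increasing protein concentrations. Unbound RNA was resolved on 8% native PAGE, cut out, reverse-transcribed, barcoded by PCR and sequenced on an Illumina HiSeq 2500. Relative association constants were derived from changes in read counts for each RNA species versus the control reaction and normalised to the cognate motif.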
row,Binder,binding signal
1,B1,0.0976 KA relative to UGCAUGU
2,B2,0.155 KA relative to UGCAUGU
3,B3,0.224 KA relative to UGCAUGU
4,B4,0.123 KA relative to UGCAUGU
5,B5,0.0653 KA relative to UGCAUGU
6,B6,0.0859 KA relative to UGCAUGU
7,B7,0.0455 KA relative to UGCAUGU
8,B8,0.13 KA relative to UGCAUGU
9,B9,0.106 KA relative to UGCAUGU
10,B10,0.154 KA relative to UGCAUGU
11,B11,0.0365 KA relative to UGCAUGU
12,B12,0.0655 KA relative to UGCAUGU
13,B13,0.0842 KA relative to UGCAUGU
14,B14,0.0996 KA relative to UGCAUGU
15,B15,0.0868 KA relative to UGCAUGU
16,B16,0.122 KA relative to UGCAUGU

row,Binder,binding signal
1,B17,0.107 KA relative to UGCAUGU
2,B18,0.109 KA relative to UGCAUGU
3,B19,0.0703 KA relative to UGCAUGU
4,B20,0.114 KA relative to UGCAUGU
5,B21,0.0593 KA relative to UGCAUGU
6,B22,0.102 KA relative to UGCAUGU
7,B23,0.0819 KA relative to UGCAUGU
8,B24,0.0472 KA relative to UGCAUGU
9,B25,0.118 KA relative to UGCAUGU
10,B26,0.102 KA relative to UGCAUGU
11,B27,0.0613 KA relative to UGCAUGU
12,B28,0.0779 KA relative to UGCAUGU
13,B29,0.0678 KA relative to UGCAUGU
14,B30,0.107 KA relative to UGCAUGU
15,B31,0.0659 KA relative to UGCAUGU

# Source: PMC9911399, “Two distinct binding modes provide the RNA-binding protein RbFox with extraordinary sequence specificity”
